Test results reported in PubChem BioAssay (NCI).
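A five-concentration, 48-hour dose response in 96-well plates underlies each endpoint, interpolated linearly between surrounding concentrations. At the GI50, growth is halved.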 A number of entries come with more than one value. The list is limited to them. An entry can have further records. For some assays here: A record mostly stands for its own series of concentrations, not given here; a value can be the end of its range.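 The concentration for full growth arrest is given as TGI.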 For some assays here: The records of an entry repeat one measurement (runs, samples, wells, individuals or studies). Marks in square brackets tell the records apart. A, B and so on number the origins entry by entry.

Key:
Assay in all cases: NCI tumour cell line growth inhibition, 48 h
[1] = test system: CCRF-CEM leukemia
[2] = test system: UACC-62 melanoma
[3] = test system: K-562 leukemia
[4] = test system: A498 renal
[5] = test system: RPMI-8226 leukemia
[6] = test system: MOLT-4 leukemia
[7] = test system: DLD-1 colon
[8] = test system: SK-OV-3 ovarian
[9] = test system: MALME-3M melanoma
[10] = test system: A549 NSCLC
[11] = test system: SK-MEL-2 melanoma
[12] = test system: TK-10 renal
[13] = test system: SK-MEL-5 melanoma
[14] = test system: IGROV1 ovarian
[15] = test system: HOP-62 NSCLC
[16] = test system: SN12C renal
[17] = test system: COLO 205 colon
[18] = test system: ACHN renal
[19] = test system: SR leukemia
[20] = test system: NCI-H460 lung
[21] = test system: NCI-H226 lung
[22] = test system: NCI/ADR-RES ovarian
[23] = test system: LOX IMVI melanoma
[24] = test system: OVCAR-4 ovarian
[25] = test system: CAKI-1 renal
[26] = test system: OVCAR-3 ovarian
[27] = test system: MCF7 breast
[28] = test system: SNB-19 CNS
[29] = test system: MDA-MB-435
[30] = test system: OVCAR-5 ovarian
[31] = test system: HOP-18 NSCLC
[32] = test system: SF-268 CNS
[33] = test system: SW-620 colon
[34] = test system: P388/ADR leukemia
[35] = test system: MDA-N
[36] = test system: KM20L2 colon
[37] = test system: SNB-78 CNS
[38] = test system: SF-295 CNS
[39] = test system: SN12K1 renal
[40] = test system: U251 CNS
[41] = test system: HCT-15 colon
[42] = test system: HL-60(TB) leukemia
[43] = test system: UO-31 renal
[44] = test system: HCT-116 colon
[45] = test system: HT29 colon
[46] = test system: P388 leukemia
[47] = test system: LXFL 529 NSCLC
[48] = test system: NCI-H23 lung
[49] = test system: DMS 273 small cell lung
[50] = test system: UACC-257 melanoma
[51] = test system: OVCAR-8 ovarian
[52] = test system: NCI-H522 lung
[53] = test system: M14 melanoma

**Q.** Which TGI [1] does the source give for C=CCn1c(=O)c2cnc(Nc3ccc(N4CCN(C)CC4)cc3)nc2n1-c1cccc(C(C)(C)O)n1 here?
**A.** Its TGI is 16.6 µM [sample A, mean of 2 tests] and 1.52 µM [sample B, mean of 2 tests].

**Q.** For COc1cccc2c1[C@H]1CO[C@H]3C4C[C@H](C(=O)O)C([C@@H](C2)N13)N4C (stereo partly specified), which TGI [2] is on record?
**A.** The TGI was 2.14 µM and 186 nM.

**Q.** And the TGI [3]?
**A.** Its TGI is 5.03 µM and > 100 µM.

**Q.** And the TGI [1]?
**A.** The TGI was > 100 µM [1 test] and 7.87 µM [mean of 3 tests].

**Q.** What about the GI50 [4] of the same compound?
**A.** Its GI50 is 233 nM [1 test] and 5.37 µM [mean of 4 tests].

**Q.** What about the TGI [4] of the same compound?
**A.** Its TGI is 584 nM [1 test] and 9.14 µM [mean of 4 tests].

**Q.** And the GI50 [5]?
**A.** Its GI50 is 75.5 nM [1 test] and 3.59 µM [mean of 3 tests].

**Q.** What about the TGI [5] of the same compound?
**A.** The TGI was > 100 µM [1 test] and 9.2 µM [mean of 3 tests].

**Q.** And the TGI [6]?
**A.** The TGI was 8.09 µM and > 100 µM.

**Q.** What does the source list for COc1cccc2c1C(=O)c1c(O)c3c(c(O)c1C2=O)C[C@@](O)(C(=O)CO)C[C@@H]3OC1CC(N2CCOCC2C#N)C(O)C(C)O1 (stereo partly specified)?
**A.** TGI [7]: 0.25, 4.98, 0.822, 207 nM; TGI [8]: 0.25 nM [1 test] and 6.26 nM, 1.83 nM [mean of 3 tests] and 15.6 nM [mean of 6 tests] and 57.6 nM [mean of 8 tests]; TGI [9]: 3.7e-05 nM, 0.247 nM, 0.81 nM; TGI [10]: 0.25 nM [1 test] and 6.32 µM [mean of 3 tests] and 2.6 nM [mean of 4 tests] and 0.000164 nM [mean of 5 tests] and 20 nM [mean of 7 tests] and 1.14 µM [mean of 9 tests]; TGI [11]: 2.1e-05 nM, 0.382 nM, 0.259 nM; TGI [2]: 0.0002 nM, 0.0857 nM, 0.0373 nM; TGI [12]: 2.73 nM [mean of 2 tests] and 1.7 µM [mean of 3 tests] and 10.4 nM [mean of 4 tests]; TGI [13]: 6.5e-05 nM, 0.204 nM, 0.127 nM; TGI [14]: 9.9e-05 nM, 0.25 nM, 5.97 nM, 7.16 nM, 447 nM, 2.1 µM; TGI [15]: 0.000199, 0.2, 0.152, 8.76 nM; TGI [16]: 0.0002 nM, 0.25 nM, 2.5 nM, 4.19 nM, < 108 nM, 881 nM; TGI [17]: 8.6e-05 nM, 0.465 nM, 0.386 nM; TGI [18]: 0.147 nM [mean of 3 tests] and 2.88 nM [mean of 4 tests]; TGI [19]: 0.0498 nM and 4.88 nM; TGI [3]: 0.25 nM, 1.31 nM, 1.14 nM, 21.9 nM, 4.58 µM; TGI [20]: 4.15 nM, 132 nM [mean of 3 tests] and 0.0002 nM, 0.471 nM [mean of 5 tests] and 7.2 nM [mean of 8 tests]; TGI [21]: 0.0664 nM [mean of 3 tests] and 0.0002 nM [mean of 5 tests] and 0.0833 nM [mean of 8 tests]; TGI [22]: 6.7e-05 nM, 1.1 nM [1 test] and 2.03 nM [mean of 10 tests] and 8.5e-05 nM [mean of 5 tests]; TGI [23]: 0.0002, 0.00502, 0.514, 0.0724, 25.3, 28 nM; TGI [24]: 0.0002 nM, 0.319 nM [mean of 5 tests] and 0.647 nM [mean of 9 tests]; TGI [25]: 0.000105 nM [1 test] and 0.0002 nM [mean of 3 tests] and 91.8 nM [mean of 4 tests] and 2.94 nM [mean of 6 tests] and 1.07 nM [mean of 7 tests]; TGI [26]: 1.47 nM, 464 nM [mean of 3 tests] and 0.0972 nM, 99.5 nM [mean of 5 tests]; TGI [27]: 0.25 nM, 6.43 nM, 406 nM; TGI [28]: 2.56 nM, 20 nM, 573 nM, 2.88 µM; TGI [29]: 0.0223 nM and 0.492 nM; TGI [1]: 0.0002, 1.33, 1.8, 2.69, 252 nM; TGI [30]: 0.126 nM [mean of 4 tests] and 0.447 nM, 20.1 nM [mean of 8 tests]; TGI [31]: 1.67, 0.779, 17.8, 84.6 nM; TGI [32]: 0.0002 nM, 5e-05 nM, 2.11 nM, 1.65 nM, 8.08 nM, 46.9 nM; TGI [33]: 0.000124 nM, 0.25 nM, 1.65 nM, 10.7 nM, 608 nM, 1.29 µM; GI50 [34]: 2.5 nM [mean of 2 tests] and 3.1e-05 nM [mean of 5 tests] and 0.00743 nM [mean of 6 tests]; TGI [34]: 250 nM [mean of 2 tests] and 0.0002 nM [mean of 5 tests] and 0.139 nM [mean of 6 tests]; TGI [35]: 0.0268 nM and 0.491 nM; TGI [36]: 1.86, 1.02, 359, 413 nM; TGI [5]: 1.61 nM, 0.271 nM, 20.7 nM; TGI [37]: 0.0469 nM, 2.55 nM, 5.74 nM, 3.61 µM, 6.13 nM; TGI [38]: 1.32 nM [mean of 4 tests] and 7.3e-05 nM [mean of 5 tests] and 0.105 nM [mean of 7 tests]; TGI [39]: 0.25 nM [1 test] and 0.786 nM [mean of 3 tests] and 6.25 nM [mean of 6 tests]; TGI [40]: 1.02 µM [mean of 3 tests] and 0.0002 nM, 6.04 nM [mean of 4 tests] and 6.1 nM [mean of 5 tests] and 307 nM [mean of 9 tests]; TGI [41]: 0.25 nM [1 test] and 2.41 nM [mean of 2 tests] and 215 nM [mean of 3 tests] and 352 nM [mean of 8 tests] and 3.12 nM [mean of 9 tests]; TGI [42]: 0.0002 nM, 0.352 nM [mean of 5 tests] and 0.218 nM [mean of 9 tests]; TGI [6]: 0.0002, 0.25, 0.77, 0.136, 628 nM; TGI [43]: 7.5e-05 nM, 0.451 nM, 0.21 nM, 3.99 nM; TGI [44]: 0.25 nM, 5.88 nM, 7.24 nM, 42.4 nM, 5.35 µM; TGI [45]: 0.0002 nM, 0.25 nM, 5.19 nM, 0.862 nM, 4.75 µM, 265 nM; TGI [46]: 0.0002, 0.25, 0.0387, 628 nM; TGI [47]: 2.7 nM and 1.05 µM; TGI [48]: 0.108 nM, 0.122 nM, 11.6 nM; TGI [49]: 6.2e-05 nM, 0.19 nM, 0.0964 nM; TGI [50]: 0.228 nM, 0.263 nM, 7.16 nM; TGI [51]: 1.94 nM, 10.4 nM [mean of 4 tests] and 6.8e-05 nM [mean of 5 tests] and 19.2 nM [mean of 7 tests] and 6.02 nM [mean of 9 tests]

**Q.** For C[C@@H]1COCCN1c1cc(-c2ccnn2C)c2ccnc(-c3ccn[nH]3)c2n1, which TGI [10] is on record?
**A.** Its TGI is 1.98 µM [sample A, mean of 2 tests] and > 100 µM [sample B, mean of 2 tests].

**Q.** And the TGI [14]?
**A.** Its TGI is 1.92 µM [sample A, mean of 2 tests] and > 20.5 µM [sample B, mean of 2 tests].

**Q.** And the TGI [19]?
**A.** Its TGI is 1.08 µM [sample A, 1 test] and > 100 µM [sample B, 1 test].

**Q.** What about the TGI [20] of the same compound?
**A.** Its TGI is 6.23 µM [sample A, mean of 2 tests] and > 100 µM [sample B, mean of 2 tests].

**Q.** And the TGI [21]?
**A.** The TGI was 3.19 µM [sample A, 1 test] and > 36 µM [sample B, mean of 2 tests].

**Q.** And the TGI [26]?
**A.** Its TGI is 6.01 µM [sample A, mean of 2 tests] and > 100 µM [sample B, mean of 2 tests].

**Q.** And the TGI [32]?
**A.** The TGI was 9.96 µM [sample A, mean of 2 tests] and > 100 µM [sample B, mean of 2 tests].

**Q.** What about the TGI [52] of the same compound?
**A.** Its TGI is 4.08 µM [sample A, mean of 2 tests] and > 81.6 µM [sample B, mean of 2 tests].

**Q.** And the TGI [53]?
**A.** The TGI was 225 nM [sample A, mean of 2 tests] and 3.58 µM [sample B, mean of 2 tests].

**Q.** What about the TGI [48] of the same compound?
**A.** The TGI was 1.65 µM [sample A, mean of 2 tests] and > 38 µM [sample B, mean of 2 tests].

**Q.** And the TGI [51]?
**A.** Its TGI is 4.7 µM [sample A, mean of 2 tests] and > 47.8 µM [sample B, mean of 2 tests].
